According to the supplement of paper PMC4967469:

What was measured:
Test in all cases: Viability of human cancer cell lines after 72 h of drug (GDSC screen)
Temsirolimus = compound: CO[C@H]1C[C@@H]2CC[C@@H](C)[C@@](O)(O2)C(=O)C(=O)N2CCCC[C@H]2C(=O)O[C@H]([C@H](C)C[C@@H]2CC[C@@H](OC(=O)C(C)(CO)CO)[C@H](OC)C2)CC(=O)[C@H](C)/C=C(\C)[C@@H](O)[C@@H](OC)C(=O)[C@H](C)C[C@H](C)/C=C/C=C/C=C/1C [Temsirolimus]; settings: top dose 0.2 µM
Description: (§1)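 Human cancer cell lines in 384-well plates, medium with 10% serum, drug for 72 h over a 256-fold dose range (nine 2-fold or five 4-fold steps up to the top dose). Adherent lines were fixed and stained with the nucleic acid dye Syto60, suspension lines read with resazurin; signal relative to control wells, capped at 0 and 100%. One two-parameter sigmoid per drug and line, fitted in a mixed model over all curves with the slope shared within a line.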

XMD15-27 = compound: C=CC(=O)Nc1ccc(C(=O)c2sc(Nc3ccc(N4CCN(C)CC4)cc3OC)nc2N)cc1 [XMD15-27]; settings: top dose 10.24 µM; top dose inferred
Description: as §1

SL 0101-1 = compound: CC(=O)O[C@@H]1[C@@H](OC(C)=O)[C@@H](O)[C@H](Oc2c(-c3ccc(O)cc3)oc3cc(O)cc(O)c3c2=O)O[C@H]1C [SL 0101-1]; settings: top dose 10 µM; top dose inferred
Description: as §1

Cell Line	AUC (Temsirolimus)	IC50 (Temsirolimus)	AUC (XMD15-27)	IC50 (XMD15-27)	AUC (SL 0101-1)	IC50 (SL 0101-1)
22RV1 (prostate, adherent)	0.746	76.6 nM	0.975	> 10200 nM	0.982	> 10000 nM
HCC2218 (breast, suspension)	0.955	> 200 nM	0.965	> 10200 nM	0.983	> 10000 nM
NB-4 (acute myeloid leukaemia, suspension)	0.874	136 nM	0.918	> 10200 nM	0.99	> 10000 nM
BT-474 (breast, adherent)	0.888	> 200 nM	0.986	> 10200 nM	0.986	> 10000 nM
NB13 (neuroblastoma, adherent)	0.912	> 200 nM	0.99	> 10200 nM	0.982	> 10000 nM
NCI-H1993 (lung adenocarcinoma, adherent)	0.976	> 200 nM	0.983	> 10200 nM	0.982	> 10000 nM
NCI-H1755 (lung adenocarcinoma, adherent)	0.888	> 200 nM	0.984	> 10200 nM	0.981	> 10000 nM
DSH1 (bladder, adherent)	0.871	175 nM	0.98	> 10200 nM	0.97	> 10000 nM
EW-13 (Ewing sarcoma, suspension)	0.8	109 nM	0.98	> 10200 nM	0.985	> 10000 nM
D-502MG (glioma, adherent)	0.836	> 200 nM	0.96	> 10200 nM	0.97	> 10000 nM
BFTC-905 (bladder, adherent)	0.899	191 nM	0.989	> 10200 nM	0.947	> 10000 nM
KNS-62 (lung squamous cell carcinoma, adherent)	0.618	30.5 nM	–	–	0.945	> 10000 nM
BT-549 (breast, adherent)	0.692	53.9 nM	–	–	0.979	> 10000 nM
MOLT-16 (T-cell lymphoblastic leukaemia, suspension)	0.119	1.14 nM	–	–	0.99	> 10000 nM
KARPAS-1106P (B-cell lymphoma, suspension)	0.308	4.04 nM	–	–	0.971	> 10000 nM
CL-40 (large intestine, adherent)	0.962	> 200 nM	–	–	0.976	> 10000 nM
NCI-H146 (small cell lung carcinoma, suspension)	0.946	> 200 nM	–	–	0.987	> 10000 nM
CL-34 (large intestine, adherent)	0.987	> 200 nM	–	–	0.987	> 10000 nM
IM-9 (myeloma, suspension)	0.992	> 200 nM	–	–	0.991	> 10000 nM
BALL-1 (B-cell leukaemia, suspension)	0.914	147 nM	–	–	0.997	> 10000 nM
VMRC-LCD (lung adenocarcinoma, adherent)	0.896	175 nM	–	–	0.993	> 10000 nM

Cell Line	AUC (Temsirolimus)	IC50 (Temsirolimus)	AUC (XMD15-27)	IC50 (XMD15-27)	AUC (SL 0101-1)	IC50 (SL 0101-1)
DIFI (large intestine, adherent)	0.808	109 nM	–	–	0.986	> 10000 nM
NCI-H929 (myeloma, suspension)	0.512	13.4 nM	–	–	0.955	> 10000 nM
SK-MEL-31 (melanoma, adherent)	0.885	> 200 nM	–	–	0.985	> 10000 nM
RH-18 (rhabdomyosarcoma, adherent)	0.925	> 200 nM	–	–	0.976	> 10000 nM
NCI-N87 (stomach, adherent)	0.755	97.4 nM	–	–	0.965	> 10000 nM
EW-22 (Ewing sarcoma, adherent)	0.841	131 nM	–	–	0.979	> 10000 nM
SK-GT-2 (stomach, adherent)	0.685	42.5 nM	–	–	0.986	> 10000 nM
ZR-75-30 (breast, adherent)	0.887	> 200 nM	–	–	0.982	> 10000 nM
CRO-AP2 (B-cell lymphoma, suspension)	0.187	1.72 nM	–	–	0.988	> 10000 nM
KATOIII (stomach, semi-adherent)	0.88	176 nM	–	–	0.988	> 10000 nM
TC-YIK (cervix, suspension)	0.96	> 200 nM	–	–	0.991	> 10000 nM
JEKO-1 (B-cell lymphoma, suspension)	0.455	9.48 nM	–	–	0.938	> 10000 nM
SUP-B8 (B-cell leukaemia, suspension)	0.502	12.7 nM	–	–	0.989	> 10000 nM
JHU-029 (head and neck, adherent)	0.638	33 nM	–	–	0.98	> 10000 nM
IGROV-1 (ovary, adherent)	0.878	> 200 nM	–	–	0.977	> 10000 nM
JHOS-4 (ovary, adherent)	0.895	> 200 nM	–	–	0.976	> 10000 nM
NCC010 (kidney, adherent)	0.853	174 nM	–	–	0.986	> 10000 nM
DOHH-2 (B-cell lymphoma, suspension)	0.524	14.5 nM	–	–	0.933	> 10000 nM
KP-1N (pancreas, adherent)	0.662	36 nM	–	–	0.981	> 10000 nM
NCI-H1341 (small cell lung carcinoma, suspension)	0.922	> 200 nM	–	–	0.991	> 10000 nM

IC50 is the fitted dose that halves viability relative to control wells, and lower means more sensitive; fits outside the tested doses are given as limits. AUC is the area under the same curve over the 256-fold range up to the top dose, as a fraction; values near 1 show little effect. For part of these data: A top dose marked as inferred is not printed in the source and was worked back from the curve model.
